Source: publication doi:10.1101/325712 (bioRxiv, 2018)

T1: human FLNC domains 18-21 (residues 1943-2408), EEF-tagged (human, UniProt Q14315 1943-2408)
T1 sequence: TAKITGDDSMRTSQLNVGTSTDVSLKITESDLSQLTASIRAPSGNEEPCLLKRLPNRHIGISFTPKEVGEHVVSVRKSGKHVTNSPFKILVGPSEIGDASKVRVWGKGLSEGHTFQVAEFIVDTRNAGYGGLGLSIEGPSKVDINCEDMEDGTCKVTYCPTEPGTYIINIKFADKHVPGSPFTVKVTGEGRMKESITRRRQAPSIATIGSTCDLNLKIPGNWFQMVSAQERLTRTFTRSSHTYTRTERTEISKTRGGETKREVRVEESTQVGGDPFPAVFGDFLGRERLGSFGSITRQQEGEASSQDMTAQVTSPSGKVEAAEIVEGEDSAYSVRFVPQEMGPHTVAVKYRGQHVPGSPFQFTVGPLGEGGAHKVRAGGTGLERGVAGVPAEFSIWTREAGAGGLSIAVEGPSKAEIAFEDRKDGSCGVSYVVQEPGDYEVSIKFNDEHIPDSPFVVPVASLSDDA


Columns and labels:
[1] = biological target: the molecule itself; assay: native MS
[2] = biological target: T1, human FLNC domains 18-21 (residues …); assay: co-sedimentation

| Binder | binding result [1] | also measured |
| --- | --- | --- |
| human HspB1 […], single phosphomimic at Ser82 (domain or fragment) not shown | binds |  |
| human HspB1 […], double phosphomimic (S78E, S82D) (domain or fragment) not shown | binds |  |
| full-length human HspB1 triple phosphomimic (S15D, S78D, S82D) (natural protein) not shown |  | binding result [2]: binds |
| human HspB1 […], WT (domain or fragment) not shown |  | stoichiometry N [1]: 2 |
